# Reference: a collection of fitness landscapes (doi:10.1038/s41467-024-54723-y)
# Whole data set: some 18,000 sequences, median “TetR repression strength (sort-seq, GFP reporter)” near 0.23, cut for the highest 2% near 0.68. The list shows a part of the results.
# Biological target: TetR (class B, Tn10) (UniProt P04483)
# Assay: TetR repression strength (sort-seq, GFP reporter) (relative to tetO2 = 1); higher = stronger repression
# Conditions: E. coli
# Method in brief: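 Repression strength was calculated by subtracting the read-weighted mean bin from the top bin index plus one and dividing by the unaltered operator's value. The plasmid library was low-copy in E. coli SIG10-MAX, with eight randomized operator positions between a constitutive promoter and sfGFP and constitutive TetR. Cultures grew 5 h at 37 °C in LB containing 50 µg/mL chloramphenicol before 10^6 cells were sorted by FACS into 13 fluorescence bins, each sequenced on Illumina. Three independent transformations were averaged for members having ≥30 reads in all replicates and a CV ≤0.5.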
# Sequence of UniProt P04483 (P04483 whole entry): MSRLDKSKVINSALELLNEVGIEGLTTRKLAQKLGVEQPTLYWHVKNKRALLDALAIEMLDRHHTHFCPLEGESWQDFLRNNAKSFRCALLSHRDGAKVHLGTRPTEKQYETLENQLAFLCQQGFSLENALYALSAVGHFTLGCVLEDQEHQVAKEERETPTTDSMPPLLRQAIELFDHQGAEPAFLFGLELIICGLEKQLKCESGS
row,Sequence,TetR repression strength
1,TCCCGAACAGTAGTGGAGA,0.137
2,TCCCGGTTAGTCGTTGAGA,0.225
3,TCCCAATCAGTGATAGAGA,0.785
4,TCCCTCGAAGTTACCGAGA,0.221
5,TCCCGGGAAGTAGGGGAGA,0.163
6,TCCCGGATAGTGTCCGAGA,0.43
7,TCCCCATTAGTGAGTGAGA,0.324
8,TCCCGATCAGTATGCGAGA,0.135
9,TCCCGCTCAGTGGGGGAGA,0.346
10,TCCCGGGGAGTACTAGAGA,0.283
11,TCCCACGTAGTGCAAGAGA,0.62
12,TCCCCGGGAGTACAAGAGA,0.356
13,TCCCAAGGAGTCTCAGAGA,0.536
14,TCCCTGCGAGTAGTCGAGA,0.542
15,TCCCCGTAAGTGGTAGAGA,0.118
16,TCCCGGGCAGTTGTAGAGA,0.17
17,TCCCCCGTAGTTACAGAGA,0.171
18,TCCCCGTCAGTTGGGGAGA,0.19
19,TCCCGGGAAGTGACTGAGA,0.263
20,TCCCGCCAAGTGGCTGAGA,0.183
21,TCCCTGCCAGTTGTTGAGA,0.135
22,TCCCCCACAGTCTGAGAGA,0.109
23,TCCCTGGTAGTACGGGAGA,0.405
24,TCCCATCGAGTACTGGAGA,1.02
25,TCCCTAGTAGTACTGGAGA,0.176
26,TCCCGGCAAGTGGGTGAGA,0.0995

row,Sequence,TetR repression strength
1,TCCCGCCAAGTTTGGGAGA,0.271
2,TCCCTGTAAGTGAGAGAGA,0.405
3,TCCCGGTGAGTGAATGAGA,0.355
4,TCCCCACGAGTAGGGGAGA,0.268
5,TCCCCCACAGTTGGTGAGA,0.207
6,TCCCGTCTAGTATCAGAGA,0.38
7,TCCCTTCTAGTCTTCGAGA,0.401
8,TCCCGGCCAGTGGCCGAGA,0.28
9,TCCCCCCCAGTCTAGGAGA,0.8
10,TCCCCATGAGTCGTTGAGA,0.337
11,TCCCGCGCAGTTGGAGAGA,0.399
12,TCCCGCATAGTGGAGGAGA,0.157
13,TCCCGATTAGTGGCGGAGA,0.446
14,TCCCAAACAGTGTTCGAGA,0.305
15,TCCCAGGCAGTCACGGAGA,0.313
16,TCCCTGACAGTACTCGAGA,0.134
17,TCCCGCGAAGTCTACGAGA,0.303
18,TCCCGCAAAGTGTGCGAGA,0.00592
19,TCCCGATCAGTTCGTGAGA,0.0283
20,TCCCACCAAGTGGCAGAGA,0.538
21,TCCCCTAGAGTCGGCGAGA,0.128
22,TCCCTTCTAGTCATTGAGA,0.394
23,TCCCGAGGAGTGCGGGAGA,0.453
24,TCCCGCCAAGTGCATGAGA,0.138
25,TCCCGACGAGTCCTCGAGA,0.297
26,TCCCCTGGAGTCCGAGAGA,0

row,Sequence,TetR repression strength
1,TCCCCGCTAGTGCACGAGA,0.403
2,TCCCCTTGAGTAATGGAGA,0.0959
3,TCCCGGGCAGTCACCGAGA,0.216
4,TCCCATGGAGTACAAGAGA,0.262
5,TCCCGTGGAGTTGTCGAGA,0.388
6,TCCCGCCGAGTGACCGAGA,0.153
7,TCCCACGGAGTTAGCGAGA,0.518
8,TCCCTGTTAGTGAATGAGA,0.436
9,TCCCCCGAAGTCAAGGAGA,0.21
10,TCCCGTGGAGTCGTTGAGA,0.197
11,TCCCTTTTAGTCATGGAGA,0.109
12,TCCCGTCAAGTGAGGGAGA,0.224
13,TCCCCTACAGTCGCAGAGA,0.294
14,TCCCTACCAGTGCAAGAGA,0.199
15,TCCCTCGTAGTTATGGAGA,0.291
16,TCCCTGTGAGTTAGAGAGA,0.461
17,TCCCGTACAGTTAACGAGA,0.226
18,TCCCGTAGAGTAAAAGAGA,0.298
19,TCCCTGATAGTTCGAGAGA,0.244
20,TCCCGCCAAGTGTGGGAGA,0.091
21,TCCCAGGTAGTAGATGAGA,0.192
22,TCCCATGTAGTGCATGAGA,0.207
23,TCCCGTCGAGTCGCAGAGA,0.442
24,TCCCTCTGAGTGGATGAGA,0.217
25,TCCCTTCGAGTTTATGAGA,0.513
26,TCCCCGACAGTCGAAGAGA,0.188

row,Sequence,TetR repression strength
1,TCCCGGTCAGTAGTGGAGA,0.294
2,TCCCGACAAGTTAGTGAGA,0.154
3,TCCCCGCCAGTGACCGAGA,0.207
4,TCCCGTACAGTGGAGGAGA,0.194
5,TCCCGCGAAGTTGGTGAGA,0.202
6,TCCCGGCTAGTTGATGAGA,0.374
7,TCCCCTAGAGTTTCGGAGA,0.0921
8,TCCCAGCTAGTCGTCGAGA,0.418
9,TCCCACGGAGTTTCTGAGA,0.231
10,TCCCGGGAAGTATGGGAGA,0.136
11,TCCCCTTCAGTTATTGAGA,0.396
12,TCCCCTCTAGTAATGGAGA,0.574
13,TCCCTCCAAGTGGTTGAGA,0.177
14,TCCCGTCAAGTGTACGAGA,0.0428
15,TCCCTGTGAGTGACTGAGA,0.0801
16,TCCCAGTAAGTTGACGAGA,0.0146
17,TCCCGCGAAGTAGCGGAGA,0.206
18,TCCCCCGTAGTACACGAGA,0.231
19,TCCCAGGCAGTGTGTGAGA,0.207
20,TCCCGGGGAGTCTCCGAGA,0.24
21,TCCCGGCCAGTAGCGGAGA,0.0259
22,TCCCGGGGAGTAATGGAGA,0.25
23,TCCCCGCAAGTGCTCGAGA,0.373
24,TCCCTACAAGTATGCGAGA,0.286
25,TCCCAGATAGTCCTCGAGA,0.235
26,TCCCAACAAGTTAGTGAGA,0.504

row,Sequence,TetR repression strength
1,TCCCCAAAAGTGGATGAGA,0.232
2,TCCCGCCAAGTCTTTGAGA,0.514
3,TCCCAGGTAGTATCGGAGA,0.023
4,TCCCAGTTAGTGGTTGAGA,0.12
5,TCCCGTCTAGTCAGGGAGA,0.266
6,TCCCCTGCAGTCAGAGAGA,0.15
7,TCCCTGGTAGTGTGCGAGA,0.0311
8,TCCCACCTAGTATCCGAGA,0.311
9,TCCCAACTAGTGGTGGAGA,0.352
10,TCCCGGGGAGTCTATGAGA,0.521
11,TCCCGAATAGTCAATGAGA,0.268
12,TCCCAGAAAGTTCGCGAGA,0.211
13,TCCCACTAAGTCTTTGAGA,0.143
14,TCCCAATCAGTATGTGAGA,0.436
15,TCCCATGCAGTCGAGGAGA,0.258
16,TCCCGAGTAGTAACGGAGA,0.461
17,TCCCGGTTAGTAGAGGAGA,0.224
18,TCCCGATAAGTATTTGAGA,0.207
19,TCCCAGGCAGTAGGCGAGA,0.205
20,TCCCGCCCAGTAAAAGAGA,0.25
21,TCCCCACAAGTTCGGGAGA,0.0657
22,TCCCCGCAAGTAGCTGAGA,0.126
23,TCCCAGCCAGTCTAAGAGA,0.258
24,TCCCAATTAGTTTACGAGA,0.159
25,TCCCGACTAGTCGAGGAGA,0.233
26,TCCCAGAGAGTTGAGGAGA,0.191

row,Sequence,TetR repression strength
1,TCCCGCATAGTCTCTGAGA,0.18
2,TCCCGTCTAGTGATTGAGA,0.279
3,TCCCTTTAAGTACGGGAGA,0.177
4,TCCCACCTAGTGGAAGAGA,0.54
5,TCCCAGAAAGTGGTTGAGA,0.329
6,TCCCGCTTAGTCGTCGAGA,0.185
7,TCCCTGCAAGTCAAAGAGA,0.0554
8,TCCCCTTAAGTTTCGGAGA,0.506
9,TCCCACGCAGTGGTCGAGA,0.246
10,TCCCATTTAGTAATGGAGA,0.103
11,TCCCACGGAGTTAAGGAGA,0.198
12,TCCCGAGGAGTTGGGGAGA,0.152
13,TCCCCGAAAGTTAGTGAGA,0.225
14,TCCCGTTGAGTAACAGAGA,0.299
15,TCCCGTGAAGTAGCAGAGA,0.578
16,TCCCGCATAGTTCAAGAGA,0.626
17,TCCCCGGCAGTTGGCGAGA,0.437
18,TCCCAAATAGTTGAAGAGA,0.277
19,TCCCTCTAAGTTGTGGAGA,0.376
20,TCCCCACAAGTGCCAGAGA,0.495
21,TCCCAAGTAGTCGTCGAGA,0.157
22,TCCCCTAAAGTTAGGGAGA,0.199
23,TCCCTATAAGTGGTTGAGA,0.605
24,TCCCCTGGAGTTGGCGAGA,0.304
25,TCCCACTCAGTGCCGGAGA,0.203
26,TCCCGACGAGTCGTGGAGA,0.29

row,Sequence,TetR repression strength
1,TCCCTTCCAGTATCAGAGA,0.0836
2,TCCCAATCAGTGTTCGAGA,0.424
3,TCCCTGCAAGTTTCGGAGA,0.0543
4,TCCCAGTTAGTGTTGGAGA,0.259
5,TCCCAAGGAGTACAGGAGA,0.213
6,TCCCCGGTAGTATGGGAGA,0.0909
7,TCCCTTGTAGTGTGAGAGA,0.0522
8,TCCCATAGAGTCACGGAGA,0.119
9,TCCCTGGAAGTGAACGAGA,0.39
10,TCCCCGAAAGTGTATGAGA,0.289
11,TCCCGGGGAGTAGTAGAGA,0.358
12,TCCCGTTAAGTCGGGGAGA,0.361
13,TCCCCATCAGTAACTGAGA,0.122
14,TCCCGTTGAGTATTTGAGA,0.329
15,TCCCGTTTAGTTAGAGAGA,0.227
16,TCCCGTGGAGTGATGGAGA,0.157
17,TCCCCGTGAGTTGGGGAGA,0.144
18,TCCCAACTAGTACTTGAGA,0.416
19,TCCCAGTAAGTAGCAGAGA,0.334
20,TCCCGGCGAGTAGTTGAGA,0.141
21,TCCCGGAGAGTCCTAGAGA,0.297
22,TCCCTGCAAGTGGGTGAGA,0.167
23,TCCCAAGTAGTTATTGAGA,0.267
24,TCCCCTGAAGTTTGTGAGA,0.135
25,TCCCTTCGAGTTGGCGAGA,0
26,TCCCGGGTAGTGGAGGAGA,0.194

row,Sequence,TetR repression strength
1,TCCCCTAGAGTTCCGGAGA,0.164
2,TCCCGTAGAGTGGCTGAGA,0.256
3,TCCCTTCAAGTCGAAGAGA,0.193
4,TCCCATCAAGTTAGAGAGA,0.246
5,TCCCGTTAAGTAGCAGAGA,0.18
6,TCCCATGGAGTGACGGAGA,0.128
7,TCCCCGGGAGTGGATGAGA,0.195
8,TCCCGTCTAGTTGGCGAGA,0.247
9,TCCCTAGAAGTTGTCGAGA,0.025
10,TCCCGAACAGTTGTTGAGA,0.187
11,TCCCCTCGAGTGGCAGAGA,0.147
12,TCCCGACGAGTCGACGAGA,0.178
13,TCCCGAGTAGTAGCTGAGA,0.222
14,TCCCCCAAAGTCCAAGAGA,0.624
15,TCCCAGCGAGTGAGGGAGA,0.388
16,TCCCGGCCAGTAAGTGAGA,0.0781
17,TCCCGGTCAGTGCTTGAGA,0.35
18,TCCCCCTCAGTGGGCGAGA,0.168
19,TCCCAGGGAGTAAGGGAGA,0.264
20,TCCCAAGCAGTGTCTGAGA,0.311
21,TCCCCTAGAGTGATTGAGA,0.186
22,TCCCTGCAAGTGCATGAGA,0.253
